# In PubChem BioAssay AID651740 (Broad Institute, 2012):
# About 1,200 (21%) of roughly 5,600 compounds were called active. This list was built around the results that the source calls inconclusive (neither active nor inactive); the mix of calls is not that of the screen.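 How the source made its calls: active means mean inhibition above about 95%, with at least 55% of replicates also reaching it (limit read from the data); inconclusive means meets just one of the two conditions; inactive means meets neither condition.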
# Assay: Trypanosoma cruzi growth blockers in host fibroblasts – NIH3T3 host cells, beta-gal parasites, cherry-pick, set 2, confirmation (AID 651740);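 further: plate controls were neutral control median for no effect and positive control median for full effect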
# Conditions: T. cruzi beta-gal in NIH3T3, GalScreen luminescence, 90 h; at 2.09 µM; stronger effect = higher value
# How it was run: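 Test system: beta-gal T. cruzi in mouse NIH/3T3 fibroblasts. Quantity: 5,000 host cells per well. Buffer or medium: DMEM plus 2% fetal bovine serum, 1% PSG. Reagent: 5000 trypomastigotes per well. Timing: 3 h host cell attachment, then ≥90 h compound-parasite co-culture, 60 min GalScreen. Technique: luminescence, GalScreen.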
row,Structure (SMILES),inhibition
1,C[C@H](CO)N1C[C@H](C)[C@H](CN(C)S(=O)(=O)c2ccc(F)cc2)Oc2cc(Br)ccc2S1(=O)=O,inactive: 28.6%
2,Cc1ccc(S(=O)(=O)N(C)C[C@@H]2OCCCC[C@@H](C)Oc3ccc(NC(=O)Nc4ccc(F)cc4)cc3C(=O)N([C@@H](C)CO)C[C@@H]2C)cc1,active: 105%
3,COc1ccccc1C#Cc1ccc([C@H]2[C@@H](CO)N3CCCCN(C(=O)C4CCC4)C[C@@H]23)cc1,inconclusive: 98.2%
4,C[C@@H]1CN([C@@H](C)CO)S(=O)(=O)c2ccc(C#Cc3ccccc3)cc2O[C@@H]1CN(C)S(=O)(=O)c1ccccc1F,active: 109%
5,COc1cccc(-c2ccc3c(c2)[C@@H]2[C@@H](CCN2C(=O)C2CCOCC2)[C@@H](CO)N3)c1,inconclusive: 97.2%
6,Cc1ccc(S(=O)(=O)N(C)C[C@@H]2Oc3c(NC(=O)c4nc5ccccc5s4)cccc3C(=O)N([C@H](C)CO)C[C@@H]2C)cc1,inconclusive: 96.1%
7,Cc1ccc(-c2ccc([C@H]3[C@H](CO)N4CCCCN(C(=O)Nc5cccc(F)c5)C[C@@H]34)cc2)cc1,inconclusive: 96.8%
8,C[C@H](CO)N1C[C@H](C)[C@H](CN(C)Cc2ccc(Oc3ccccc3)cc2)Oc2ccc(NC(=O)Nc3cccc4ccccc34)cc2C1=O,active: 99.7%
9,C[C@@H]1CN([C@@H](C)CO)C(=O)c2cccc(NC(=O)Nc3ccc4c(c3)OCO4)c2O[C@H]1CN(C)Cc1ccc(C(=O)Nc2ccccc2N)cc1,inconclusive: 95.4%
10,CC(C)NC(=O)N(C)C[C@@H]1Oc2cc(C#Cc3ccc(F)cc3)ccc2S(=O)(=O)N([C@H](C)CO)C[C@@H]1C,inconclusive: 96.3%
11,CCCC#Cc1ccc([C@H]2[C@@H](C#N)N(C(=O)C3CCC3)[C@@H]2CO)cc1,active: 99.7%
12,Cc1noc(C)c1S(=O)(=O)Nc1ccc2c(c1)C(=O)N([C@@H](C)CO)C[C@H](C)[C@@H](CN(C)Cc1ccc(C(F)(F)F)cc1)OCCCC[C@@H](C)O2,inconclusive: 95.5%
13,C[C@H]1CN([C@@H](C)CO)C(=O)c2cc(C#Cc3ccccc3F)cnc2O[C@@H]1CN(C)C(=O)Cc1ccncc1,inactive: 48%
14,O=C(C1CCC1)N1CC[C@@H]2[C@H]1c1cc(-c3cccc(F)c3)ccc1N[C@@H]2CO,active: 109%
15,CCCC#Cc1ccc2c(c1)O[C@H](CN(C)Cc1ccccn1)[C@@H](C)CN([C@@H](C)CO)S2(=O)=O,inconclusive: 95.6%
16,CN(C)C(=O)c1cccc(-c2ccc([C@H]3[C@H](CO)N4CCCCN(C(=O)C5CCC5)C[C@@H]34)cc2)c1,inconclusive: 99.1%
17,OC[C@@H]1[C@H](c2ccc(C#CC3CCCC3)cc2)[C@H]2CN(CCC(F)(F)F)CCCCN12,active: 109%
18,C[C@H]1CN([C@@H](C)CO)S(=O)(=O)c2ccc(C#Cc3cccc(F)c3)cc2O[C@@H]1CN(C)S(=O)(=O)c1ccccc1F,active: 103%
19,C[C@H]1CN([C@@H](C)CO)C(=O)c2cc(NC(=O)Nc3ccc(C(F)(F)F)cc3)ccc2O[C@H]1CN(C)Cc1ccc(-c2ccccc2)cc1,inconclusive: 96.7%

row,Structure (SMILES),inhibition
1,Cc1cccc(S(=O)(=O)N2CCCCN3[C@H](CO)[C@@H](c4ccc(C#CC(C)C)cc4)[C@H]3C2)c1,inconclusive: 97.2%
2,O=C(C[C@H]1C[C@@H]2c3cc(NC(=O)Nc4ccc(C(F)(F)F)cc4)ccc3O[C@@H]2[C@H](CO)O1)NCc1ccc(Cl)cc1,inactive: 49.2%
3,Cc1ccc(S(=O)(=O)Nc2ccc3c(c2)C(=O)N([C@H](C)CO)C[C@H](C)[C@@H](CN(C)S(=O)(=O)c2ccc(Cl)cc2)OCCCC[C@@H](C)O3)cc1,inactive: 41.3%
4,O=C(C[C@H]1CC[C@H]2[C@@H](COC[C@H](O)CN2S(=O)(=O)c2ccc(F)cc2)O1)N[C@H]1CCN(Cc2ccccc2)C1,inactive: 53.3%
5,COc1ccc(-c2ccc([C@@H]3[C@H](CO)N4CCCCN(C(=O)NC(C)C)C[C@@H]34)cc2)cc1,inactive: 67%
6,COc1ccc(CN(C)C[C@H]2OCCCC[C@H](C)Oc3ccc(NC(=O)Nc4cccc5ccccc45)cc3C(=O)N([C@@H](C)CO)C[C@H]2C)cc1,inactive: 92.3%
7,COc1ccccc1-c1ccc2c(c1)O[C@H](CN(C)S(=O)(=O)c1ccc(C)cc1)[C@H](C)CN([C@H](C)CO)S2(=O)=O,inconclusive: 95.9%
8,CC(C)CC#Cc1ccc2c(c1)O[C@@H](CN(C)C(=O)C1CCCCC1)[C@@H](C)CN([C@@H](C)CO)S2(=O)=O,inconclusive: 97.7%
9,C[C@H]1CN([C@@H](C)CO)S(=O)(=O)c2ccc(-c3ccccc3F)cc2O[C@@H]1CN(C)Cc1cccnc1,active: 104%
10,C[C@@H]1CN([C@@H](C)CO)C(=O)Cc2cc(NC(=O)Nc3cccc4ccccc34)ccc2O[C@H]1CN(C)Cc1ccc(Oc2ccccc2)cc1,active: 107%
11,Cc1ccccc1S(=O)(=O)N1CC[C@@H]2[C@H](CO)Nc3ccc(-c4ccccc4)cc3[C@@H]21,inconclusive: 95.2%
12,CC(C)C#Cc1ccc2c(c1)O[C@@H](CN(C)C(=O)c1ccncc1)[C@@H](C)CN([C@@H](C)CO)S2(=O)=O,inconclusive: 96.2%
13,C[C@H](CO)N1C[C@H](C)[C@H](CN(C)C(=O)c2ccccc2)OCCCC[C@H](C)Oc2ccc(NC(=O)CCCCCC(=O)Nc3ccccc3N)cc2C1=O,inconclusive: 98.2%
14,COc1ccccc1-c1ccc2c(c1)[C@@H]1[C@@H](CCN1C(=O)C1CC1)[C@H](CO)N2,inconclusive: 97.3%
15,CO[C@@H]1CN(C)C(=O)c2cc(NS(=O)(=O)c3cccc(F)c3)ccc2OC[C@@H](C)N(Cc2cc(F)ccc2F)C[C@H]1C,inconclusive: 95.5%
16,Cc1ccc(S(=O)(=O)Nc2ccc3c(c2)C(=O)N([C@@H](C)CO)C[C@@H](C)[C@H](CN(C)C(=O)Nc2ccc(F)cc2)OCCCC[C@@H](C)O3)cc1,inactive: 82.2%
17,C[C@@H]1CCCCO[C@@H](CN(C)Cc2ccc(Cl)c(Cl)c2)[C@@H](C)CN([C@H](C)CO)C(=O)c2cc(NC(=O)C3CCCCC3)ccc2O1,inconclusive: 97.4%
18,CC(C)CC#Cc1ccc2c(c1)O[C@@H](CN(C)C(=O)C1CCCCC1)[C@@H](C)CN([C@H](C)CO)S2(=O)=O,active: 116%
19,CCCC#Cc1ccc2c(c1)O[C@H](CN(C)Cc1ccncc1)[C@@H](C)CN([C@H](C)CO)S2(=O)=O,inconclusive: 97.1%

row,Structure (SMILES),inhibition
1,COc1ccc(CN(C)C[C@H]2OCCCC[C@H](C)Oc3ccc(NC(=O)Nc4ccc5c(c4)OCO5)cc3C(=O)N([C@H](C)CO)C[C@H]2C)cc1,inconclusive: 96.4%
2,CC(C)CC#Cc1ccc2c(c1)O[C@H](CN(C)C(=O)Nc1ccccc1)[C@H](C)CN([C@@H](C)CO)S2(=O)=O,inconclusive: 97.9%
3,CCCN(C)C[C@@H]1Oc2cc(C#Cc3ccccc3OC)ccc2S(=O)(=O)N([C@H](C)CO)C[C@@H]1C,inactive: 81.3%
4,C[C@H](CO)N1C[C@H](C)[C@H](CN(C)S(=O)(=O)c2ccc(F)cc2)Oc2ncc(C#Cc3ccc(C(F)(F)F)cc3)cc2C1=O,active: 103%
5,C[C@@H]1CN([C@@H](C)CO)S(=O)(=O)c2ccc(C#Cc3ccccc3)cc2O[C@@H]1CN(C)C(=O)Nc1ccc2c(c1)OCO2,inconclusive: 95.2%
6,COc1ccccc1NC(=O)N1CCCCN2[C@H](CO)[C@H](c3ccc(-c4ccccc4)cc3)[C@H]2C1,inactive: 74.1%
7,C[C@H](CO)N1C[C@H](C)[C@@H](CN(C)C(=O)CN(C)C)Oc2cc(C#Cc3ccccc3)ccc2S1(=O)=O,inactive: 62.2%
8,COc1ccc(NC(=O)Nc2ccc3c(c2)C(=O)N([C@@H](C)CO)C[C@H](C)[C@H](CN(C)Cc2ccc4c(c2)OCO4)OCCCC[C@@H](C)O3)cc1,inactive: 53.8%
9,C[C@H]1CN([C@@H](C)CO)C(=O)c2cc(C#Cc3ccccn3)cnc2O[C@@H]1CN(C)Cc1cncnc1,inactive: 22.7%
10,C/C=C/c1ccc2c(c1)O[C@@H](CN(C)Cc1ccncc1)[C@H](C)CN([C@@H](C)CO)S2(=O)=O,active: 105%
11,C[C@H]1CN([C@@H](C)CO)S(=O)(=O)c2ccc(C#Cc3ccc(F)cc3)cc2O[C@H]1CN(C)S(=O)(=O)c1ccc(F)cc1,inconclusive: 95.7%
12,C[C@@H]1CN([C@@H](C)CO)S(=O)(=O)c2ccc(C#Cc3ccccn3)cc2O[C@H]1CN(C)Cc1ccc(F)cc1,inconclusive: 95.5%
13,C[C@@H]1CN([C@@H](C)CO)S(=O)(=O)c2ccc(C3=CCCC3)cc2O[C@@H]1CN(C)Cc1ccccc1F,active: 110%
14,O=C(c1ccc(F)cc1)N1CCCCN2[C@H](CO)[C@H](c3ccc(/C=C/c4ccccc4)cc3)[C@@H]2C1,inconclusive: 96.8%
15,CS(=O)(=O)N1[C@@H](C#N)[C@@H](c2ccc(C#CC3CC3)cc2)[C@@H]1CO,inconclusive: 96%
16,C[C@@H]1CCCCO[C@@H](CN(C)S(=O)(=O)c2ccccc2)[C@H](C)CN([C@H](C)CO)C(=O)c2cc(NS(=O)(=O)c3ccc(Cl)cc3)ccc2O1,inconclusive: 95.3%
17,CCC(=O)N(C)C[C@@H]1Oc2cc(C#CCN(C)C)ccc2S(=O)(=O)N([C@H](C)CO)C[C@H]1C,inconclusive: 97.5%
18,C[C@H](CO)N1C[C@H](C)[C@H](CN(C)C(=O)Nc2ccccc2)Oc2ncc(C#Cc3ccc(C(F)(F)F)cc3)cc2C1=O,inconclusive: 96.8%
